“And” between values parts separate entries of the source, which are not always exact repeats. Identical values can stand only once. Among all 76,000 compounds or so, about 1,900 (2.5%) were called active. The shares of active, inactive and inconclusive entries below differ from those in the screen. The call rests on the fitted dose curve; in most records, active means well fitted inhibition curve with a large enough effect; inconclusive means small, poorly fitted or top-dose-only effect; inactive means flat fitted curve, though single readings scatter. Potencies of inconclusive entries are doubtful fits and often do not repeat.
target: Luciferin 4-monooxygenase (Photinus pyralis) (UniProt P08659); assay: Firefly luciferase inhibition profiling of diverse chemical library using quantitative high-throughput screening; further: nearly all actives have a fitted effect of over 65% in size; settings: purified P. pyralis luciferase, luminescence, biochemical; series mostly up to 115 µM
Sequence of UniProt P08659 (P08659 whole entry, looked up): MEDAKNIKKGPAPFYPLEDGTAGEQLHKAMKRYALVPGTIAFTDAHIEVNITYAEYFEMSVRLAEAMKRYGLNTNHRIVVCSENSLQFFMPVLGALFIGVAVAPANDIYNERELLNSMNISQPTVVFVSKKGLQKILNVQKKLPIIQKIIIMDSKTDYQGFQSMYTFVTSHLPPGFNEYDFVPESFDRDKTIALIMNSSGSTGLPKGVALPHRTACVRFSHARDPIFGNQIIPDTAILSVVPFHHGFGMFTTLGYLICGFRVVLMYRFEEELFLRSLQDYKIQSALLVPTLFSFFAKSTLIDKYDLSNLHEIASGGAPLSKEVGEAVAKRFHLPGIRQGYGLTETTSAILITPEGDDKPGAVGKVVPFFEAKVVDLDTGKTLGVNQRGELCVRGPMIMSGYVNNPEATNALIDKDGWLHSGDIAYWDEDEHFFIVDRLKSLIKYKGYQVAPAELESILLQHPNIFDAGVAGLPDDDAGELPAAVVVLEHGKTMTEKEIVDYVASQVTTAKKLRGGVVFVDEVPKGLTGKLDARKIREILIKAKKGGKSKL
In short: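 Purified P. pyralis luciferase (10nM final) in 50mM Tris acetate pH 7.5, 10mM Mg acetate, 0.01% Tween-20, 0.05% BSA with 10uM D-luciferin and 10uM ATP. Compounds titrated qHTS. Luminescence imaged on CCD.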
Potency means the concentration at half of the fitted maximal effect; tags describe the fitted curve by direction and shape.

**Q.** How did the Potency turn out when `Cc1ccc(CN2CCc3nc(C(=O)Nc4cccnc4)oc3CC2)cc1` was run?
**A.** inconclusive: 56.2 µM [inhibitor, partial curve]

**Q.** `COc1ccc(C(=O)Nc2ccc(-c3noc([C@@H]4CCCN4Cc4cnc5ccccc5c4)n3)cn2)cc1` was tested. Which Potency did it give?
**A.** inconclusive: 28.2 µM [inhibitor, partial curve, poor fit]

**Q.** For `COc1cccc(NC(=O)c2ccc3c(c2)N(C)C2CCCN2C3=O)c1` (centres undefined), which Potency is on record?
**A.** inconclusive: 44.7 µM [inhibitor, partial curve]

**Q.** `CNC(=O)CCn1ncc2cc(OCc3ccccc3-c3ccsc3)ccc21` was tested. Which Potency did it give?
**A.** active: 50.1 µM

**Q.** With `Cc1ccc(C(=O)N2CCC(F)(c3nc(-c4ccncc4)no3)CC2)s1` as the compound, how does the Potency read?
**A.** inactive

**Q.** For `O[C@@H]1C[C@@H](c2nc(-c3ccccn3)no2)N(Cc2cc3ccccc3o2)C1`, which Potency is on record?
**A.** inconclusive: 70.8 µM [inhibitor, partial curve]

**Q.** How did the Potency turn out when `CNC(=O)C1CCN(C(=O)c2cc(COc3ccc4c(c3)OCO4)[nH]n2)C1` (centres undefined) was run?
**A.** inconclusive: 44.7 µM [inhibitor, partial curve]

**Q.** With `COc1ccc(CNC[C@H]2O[C@H](Cc3cc(-c4ccc(OC)cc4)on3)CC[C@@H]2O)cc1` as the compound, how does the Potency read?
**A.** inconclusive: 70.8 µM [inhibitor, partial curve, poor fit]

**Q.** With `CCn1ccc(C(=O)N2C[C@@H](Oc3ccccc3)C[C@@H]2C(=O)NCCOC)n1` as the compound, how does the Potency read?
**A.** inactive

**Q.** For `O=C(NC[C@H]1OC[C@@H](NC2CCCC2)[C@@H]1O)Nc1ccccc1`, which Potency is on record?
**A.** inactive

**Q.** Which Potency does the source give for `C[S+](=O)([O-])Nc1cccc(Nc2cnc3ccc(-c4ccc(F)cc4)nn23)c1` here?
**A.** inconclusive: 70.8 µM [inhibitor, partial curve]

**Q.** For `CN1C[C@@H](NC(=O)c2ccc(F)cc2)C[C@H]1c1nc(-c2ccccc2)no1`, which Potency is on record?
**A.** inconclusive: 89.1 µM [inhibitor, partial curve]

**Q.** Which Potency does the source give for `O=C(NCc1cccs1)c1cc(Br)cn2ccnc12` here?
**A.** inconclusive: 31.6 µM [inhibitor, full curve] and inconclusive: 39.8 µM [inhibitor, partial curve]

**Q.** `Cn1nc(-c2nc(C3CCOC3)no2)cc1-c1ccccc1` (centres undefined) was tested. Which Potency did it give?
**A.** inconclusive: 10 µM [inhibitor, full curve]

**Q.** With `COc1ccc(CN2CCC3(CC2)COCCN3C(=O)OCc2ccccc2)cc1O` as the compound, how does the Potency read?
**A.** inactive

**Q.** Which Potency does the source give for `C=CCn1cc2c3c(cccc31)[C@H](CC(C)C)N[C@H](C(=O)NCCOC)C2` here?
**A.** inconclusive: 112 µM [inhibitor, partial curve, poor fit]

**Q.** How did the Potency turn out when `Cc1noc(-c2nc(-c3ccc(OC(C)C)cc3)no2)n1` was run?
**A.** inconclusive: 3.16 µM [inhibitor, full curve]

**Q.** Which Potency does the source give for `Cc1nc2cc(N3CCC(C(=O)O)CC3)cnc2nc1C` here?
**A.** inconclusive: 89.1 µM [inhibitor, partial curve]

**Q.** `Cc1nnc2ccc(NCc3ccc(F)cc3)nn12` was tested. Which Potency did it give?
**A.** inconclusive: 56.2 µM [inhibitor, partial curve]

**Q.** With `Cc1ccccc1-c1nccn2c(C3CN(C(=O)c4cc5ccccc5[nH]4)C3)ncc12` as the compound, how does the Potency read?
**A.** inconclusive: 100 µM [inhibitor, partial curve, poor fit]

**Q.** `CCn1cc(Cl)c(C(=O)N2CCc3c(nc4cc(-c5ccccc5)[nH]n4c3=O)C2)n1` was tested. Which Potency did it give?
**A.** inconclusive: 44.7 µM [inhibitor, partial curve]

**Q.** For `Cc1ccc(S(=O)(=O)N[C@H]2CO[C@H]3[C@@H]2OC[C@@H]3Nc2nccc(C(C)(C)C)n2)cc1`, which Potency is on record?
**A.** inconclusive: 11.2 µM [inhibitor, partial curve, poor fit]

**Q.** With `O=C(NCc1ccco1)c1ccc(-c2ccc(N3CCCCCC3)nc2)cc1` as the compound, how does the Potency read?
**A.** inconclusive: 31.6 µM [inhibitor, partial curve]

**Q.** How did the Potency turn out when `COc1ccccc1-c1cc(-c2ccncc2)c2cncn2c1` was run?
**A.** inactive

**Q.** `CCc1ccc(C(=O)Nc2ccc3c(N4CCOCC4)ncnc3c2)cc1` was tested. Which Potency did it give?
**A.** active: 10 µM

**Q.** How did the Potency turn out when `O=C(C1CCC1)N1C[C@@H]2CC[C@H](C1)N(C(=O)Nc1ccc(F)c(F)c1)C2` was run?
**A.** inconclusive: 35.5 µM [inhibitor, partial curve, poor fit]

**Q.** With `Cc1noc(C)c1-c1cc2cc(CN(C)C)oc2c(-c2ccc([S+](C)(=O)[O-])cc2)n1` as the compound, how does the Potency read?
**A.** inactive

**Q.** How did the Potency turn out when `CN1C[C@@H](NC(=O)c2ccco2)C[C@H]1c1nc(-c2ccc(F)cc2)no1` was run?
**A.** inconclusive: 50.1 µM [inhibitor, partial curve]

**Q.** Which Potency does the source give for `COc1cccc(-c2noc(COC(=O)C3=CN(Cc4ccccc4)S(=O)(=O)N=C3C)n2)c1` here?
**A.** inconclusive: 31.6 µM [inhibitor, partial curve, poor fit]

**Q.** For `COc1ccc(NC(=O)c2c(C)oc3ccn(Cc4cccc(F)c4)c(=O)c23)cc1F`, which Potency is on record?
**A.** inactive

**Q.** For `O=C(CN1CC2CC(C1)[C@H]1CCCC(=O)N1C2)Nc1ccc2c(c1)OCCO2` (some centres undefined), which Potency is on record?
**A.** inconclusive: 25.1 µM [inhibitor, full curve]

**Q.** How did the Potency turn out when `Cc1nn(-c2ccc(C(F)(F)F)cc2)c(C)c1[C@@H]1C=C[C@@H](NC(=O)CCC(=O)O)C1` was run?
**A.** inconclusive: 126 µM [inhibitor, partial curve, poor fit]

**Q.** How did the Potency turn out when `O=C(O)Cn1ccc2cc(OCCc3cccc(-c4ccc(F)cc4)c3)cnc21` was run?
**A.** inconclusive: 35.5 µM [inhibitor, full curve]

**Q.** With `CC(C)c1nccn1CCCNC(=O)c1ccc(N2CCC(CO)CC2)nc1` as the compound, how does the Potency read?
**A.** inactive

**Q.** How did the Potency turn out when `CC(C)NC(=O)N[C@H]1C[C@@H](Cc2cc(-c3ccccc3)on2)C1(C)C` was run?
**A.** inconclusive: 70.8 µM [inhibitor, partial curve]

**Q.** For `Cn1cnnc1-c1nn(C)c2c1CN(C(=O)c1cc3ccccc3[nH]1)CC2`, which Potency is on record?
**A.** inconclusive: 1 µM [inhibitor, full curve, poor fit]

**Q.** Which Potency does the source give for `CNC(=O)CCn1ncc2cc(OCc3ccccc3-c3cc(F)ccc3C)ccc21` here?
**A.** inconclusive: 126 µM [inhibitor, single point]

**Q.** Which Potency does the source give for `O=C(Nc1nn(-c2cccc(F)c2)c2cccc(N3CCOCC3)c12)C1CCC1` here?
**A.** active: 7.94 µM

**Q.** Which Potency does the source give for `O=C1N(c2ccccc2)C[C@H]2CN(Cc3ccccc3)CCN12` here?
**A.** active: 14.1 µM

**Q.** For `COCCO[C@H]1C(=O)N(C2CCN(C(=O)c3cccn3C)CC2)[C@H]1c1ccncc1`, which Potency is on record?
**A.** inconclusive: 39.8 µM [inhibitor, partial curve]

**Q.** With `COCC1CN(Cc2ccc(Br)s2)CC12CCNCC2` (centres undefined) as the compound, how does the Potency read?
**A.** inconclusive: 89.1 µM [inhibitor, partial curve]

**Q.** With `Cc1cn2nc(-c3nc(C4CCCN(C(=O)c5ccccc5F)C4)no3)cc2c(=O)[nH]1` (centres undefined) as the compound, how does the Potency read?
**A.** inconclusive: 56.2 µM [inhibitor, partial curve, poor fit]

**Q.** `CC(C)c1ccc(OCC(=O)c2ccc3c(c2)N(CCCC(=O)N2CCOCC2)C(=O)CO3)cc1` was tested. Which Potency did it give?
**A.** inconclusive: 20 µM [inhibitor, full curve]

**Q.** How did the Potency turn out when `CN1CCCC2(CCN(C(=O)CCCOc3ccccc3)C2)C1=O` (centres undefined) was run?
**A.** active: 28.2 µM

**Q.** How did the Potency turn out when `COCCN1CCCCCC(O)c2cc(C(=O)NCCc3ccccc3)ccc21` (centres undefined) was run?
**A.** inconclusive: 44.7 µM [inhibitor, partial curve]

**Q.** How did the Potency turn out when `Cc1ccc(CN2CCC(N(CCC(C)C)C3CCOCC3)CC2)o1` was run?
**A.** inactive

**Q.** Which Potency does the source give for `Cc1ccc(OCC(=O)N2CC(Oc3ccc(-c4nc(-c5ccccc5)no4)cc3)C2)cc1` here?
**A.** inconclusive: 20 µM [inhibitor, partial curve, poor fit]

**Q.** With `CCNc1cc(N2CCC(CCC(=O)NCc3ccc(OC)cc3)CC2)ncn1` as the compound, how does the Potency read?
**A.** inconclusive: 44.7 µM [inhibitor, partial curve]

**Q.** For `COC[C@@H]1CN(Cc2cn(C)nc2C)C[C@H]1c1ccncc1`, which Potency is on record?
**A.** inactive

**Q.** With `Cc1ccc(-c2cn3c(n2)CO[C@@H](CNC(=O)NCc2ccccc2)C3)cc1` as the compound, how does the Potency read?
**A.** active: 70.8 µM

**Q.** `COCCNc1cc2c(cn1)CN(Cc1ccccc1)CCN2` was tested. Which Potency did it give?
**A.** inconclusive: 63.1 µM [inhibitor, partial curve]

**Q.** For `CC(C)NC(=O)N1CCN(C(=O)c2ccc(N(C)C)cc2)C[C@H]1C(=O)N[C@@H](CC1CCCCC1)C(N)=O`, which Potency is on record?
**A.** inactive

**Q.** How did the Potency turn out when `O=C(Nc1ccc(F)cc1)N[C@H]1[C@H](O)[C@@H](Oc2ccccc2)[C@@H]2OC[C@H]1O2` was run?
**A.** inconclusive: 100 µM [inhibitor, partial curve]

**Q.** Which Potency does the source give for `O=C([C@@H]1C[C@@H](O)[C@H](O)[C@@H]2NC(=S)N(c3ccc(OC(F)(F)F)cc3)[C@@H]21)N1CCCCC1` here?
**A.** active: 14.1 µM

**Q.** For `Cc1ccsc1C(=O)N1CCC(Oc2cccnc2)C1` (centres undefined), which Potency is on record?
**A.** inactive

**Q.** `Cc1ccc(C2=NC3(CCN(C(=O)c4ccc(F)c(F)c4)CC3)ON2)cc1` was tested. Which Potency did it give?
**A.** inconclusive: 44.7 µM [inhibitor, partial curve, poor fit]

**Q.** With `COC1C(=O)N(c2cccc(F)c2)C12CCN(C(=O)CC1CCN(C(C)=O)CC1)CC2` (centres undefined) as the compound, how does the Potency read?
**A.** inactive

**Q.** How did the Potency turn out when `O=c1c2nc(Nc3cccnc3)ccc2ncn1-c1ccccc1` was run?
**A.** inconclusive: 89.1 µM [inhibitor, partial curve]

**Q.** With `CSc1cccc(NC(=O)C2CCN(c3cnc4nc(C)c(C)nc4c3)CC2)c1` as the compound, how does the Potency read?
**A.** inconclusive: 22.4 µM [inhibitor, partial curve]

**Q.** Which Potency does the source give for `O=C(NCC(=O)N1CCN(c2ccccn2)CC1)c1cc2ccccc2[nH]1` here?
**A.** inconclusive: 0.708 µM [inhibitor, full curve, poor fit]

**Q.** For `CCC(C(=O)NCCn1ccn2nc(-c3ccc(OC)cc3)cc2c1=O)c1ccccc1` (centres undefined), which Potency is on record?
**A.** active: 8.91 µM

**Q.** For `Cc1ccc(CN[C@@H]2CO[C@H](CNC(=O)c3cccs3)[C@H]2O)cc1`, which Potency is on record?
**A.** inactive

**Q.** `CCOc1ccccc1C1NC(=O)N(CC(=O)Nc2ccc(OC)c(Cl)c2)C2=C1C(=O)OC2` (centres undefined) was tested. Which Potency did it give?
**A.** inconclusive: 22.4 µM [inhibitor, full curve]

**Q.** `COc1ccc(N2CCN(c3nc(C(=O)NCc4ccc(C)c(C)c4)cs3)CC2)cc1` was tested. Which Potency did it give?
**A.** inactive
